Hit rate of the full screen: of about 45,000 compounds, about 200 (0.44%) were called active. Another 7% or so got no clear call; they are omitted. The call rests on the fitted dose curve; in most records, active means well fitted activation curve with a large enough effect; inconclusive means small, poorly fitted or top-dose-only effect; inactive means no such curve, though single readings can be large or run the other way. The list shows a part of the results.
Potency means the concentration at half of the fitted maximal effect.

This test can be described thus: qHTS of TDP-43 Inhibitors: NCGC Sytravon Library Screen. Further: nearly all actives have a fitted effect of over 55% in size. On growth rescue (activation): 0% is about no effect. To be noted: yeast TDP-43 toxicity rescue, BacTiter-Glo growth, 24 h; series mostly up to 46.1 µM; growth rescue (activation): at the top concentration. The gist of the method:
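TDP-43-expressing yeast, pregrown in raffinose, seeded at OD600 0.02 in galactose medium with compound for 24 hr at 30 deg C. Growth read by BacTiter-Glo luminescence, so rescue of toxicity appears as activation.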
As for `Cc1nnsc1Sc1ccccc1`, the “growth rescue (activation)” value is inactive: 10%.

Consider `Cn1c(COc2ccccc2)nnc1SCC(=O)Nc1ccc(N2CCOCC2)cc1`, for which the “growth rescue (activation)” value is inactive: 0.985%.

Take `COc1ccccc1C1=NC(c2ccccc2)CN1c1ccccc1` (stereo not drawn): the “growth rescue (activation)” value is inactive: 7.61%.

Consider `Cc1ccc(S(=O)(=O)N2CCN(S(=O)(=O)N3CCC(C)CC3)CC2)cc1C`, for which the “growth rescue (activation)” value was inactive: -8.49%.

`CCc1[nH]nc(C(=O)N2CCCC(Nc3ccc(C(C)C)cc3)C2)c1C` (stereo not drawn): the “growth rescue (activation)” value is inactive: -2.5%.

In the case of `Cc1ccc2nc(Nc3ccc(Br)cc3)nc(-c3ccccc3)c2c1`, the “growth rescue (activation)” value is inactive: 11.4%.

Regarding `Cc1ccc(C(=O)NCCCNC(=O)c2ccccc2C)cn1`, the “growth rescue (activation)” value was inactive: -13.4%.

Regarding `O=C(NCC1COCCO1)c1cc(COc2c(F)cccc2F)on1` (stereo not drawn), the “growth rescue (activation)” value is inactive: -5.85%.

`O=C(NCc1ccccc1)C(c1cccnc1)N(C(=O)c1ccccn1)c1ccccc1F` (stereo not drawn): the “growth rescue (activation)” value is inactive: -2.09%.

On to `c1ccc2c(c1)c1ccccc1n1c(-c3ccc4c(c3)OCO4)nnc21`, for which the “growth rescue (activation)” value is inactive: 13.2%.

For `CCC(OC(=O)CNS(=O)(=O)c1ccccc1)C(=O)c1ccccc1` (stereo not drawn), the “growth rescue (activation)” value was inactive: -15.5%.

In the case of `O=C(CSc1ccccn1)Nc1ccc2c(c1)oc1ccccc12`, the “growth rescue (activation)” value is inactive: 4.78%.

`O=C(Nc1ccccc1Cl)NC1(C(=O)NCc2cccnc2)CCCCC1`: the “growth rescue (activation)” value was inactive: -2.1%.

Turning to `CCC1CCCCN1C(=O)CSc1n[nH]c(N)n1` (stereo not drawn), the “growth rescue (activation)” value was inactive: 4.52%.

Turning to `CCN(CC)S(=O)(=O)c1cc(NS(=O)(=O)c2cccc(Cl)c2Cl)ccc1C`, the “growth rescue (activation)” value is inactive: 11.7%.

Consider `Cc1ccc(S(=O)(=O)N2CCN(CN3C(=O)CC4(CCCC4)C3=O)CC2)cc1`, for which the “growth rescue (activation)” value was inactive: 11.8%.

Take `Cc1ccc(S(=O)(=O)N2CCN(C3CC4CCC3C4)CC2)cc1` (stereo not drawn): the “growth rescue (activation)” value is inactive: -2.68%.

On to `Cc1nc2nc(SCC(=O)c3cccc([N+](=O)[O-])c3)[nH]c2cc1Br`, for which the “growth rescue (activation)” value was inactive: 7.04%.

For `COc1cccc(C(C(=O)NC2CCCC2)N(C(=O)c2ccco2)c2ccc(-n3cnnn3)c(C)c2)c1OC` (stereo not drawn), the “growth rescue (activation)” value is inactive: 3.28%.

As to `COC(=O)/C=C1/N/C(=N\c2nc(C)cc(C)n2)N(c2ccc(Cl)cc2)C1=O`, the “growth rescue (activation)” value was inactive: 13.6%.

For the compound `COc1ccc(Cc2nc(C(=O)Nc3ccccc3)cs2)cc1`, the “growth rescue (activation)” value is inactive: 19.9%.

Regarding `C=CCn1c(=S)[nH]c2cc(C(=O)Nc3ccc(OC)c(OC)c3)ccc2c1=O`, the “growth rescue (activation)” value was inactive: 15%.

Regarding `O=C(NCC1COc2ccccc2O1)c1c[nH]c2ccc(S(=O)(=O)N3CCOCC3)cc2c1=O` (stereo not drawn), the “growth rescue (activation)” value was inactive: 12.3%.

As for `COc1ccc(CNC(=O)CCSCc2ccccc2Cl)c(OC)c1`, the Potency is active: 14.1 µM.

On to `Cc1ccc(CCN2CC(C(=O)NCCN(C)C)CC2=O)cc1` (stereo not drawn), for which the “growth rescue (activation)” value is inactive: 1.31%.

Consider `CC(=O)N1CCN(C(=O)c2ccc(OC3CCN(Cc4ccccn4)CC3)cc2)CC1`, for which the “growth rescue (activation)” value was inactive: 1.12%.

Take `O=C(CSc1nc2ncccc2[nH]1)NC1CCCCC1`: the “growth rescue (activation)” value was inactive: -16.4%.

Turning to `Cc1ccc(NC(=O)c2ccccc2NC(=O)Cc2ccccc2)cc1`, the “growth rescue (activation)” value was inactive: 8.06%.

On to `CCN1CCN(CC(=O)Nc2ccc(C(C)=O)cc2)CC1`, for which the “growth rescue (activation)” value was inactive: 7.31%.

With `Cc1cccc(C)c1OCc1nc2ccccc2c(=O)n1/N=C/c1c[nH]c2ccccc12`, the “growth rescue (activation)” value was inactive: 8.8%.

As for `COc1ccc(OC)c(NC(=O)c2cc3ccccc3cc2OC)c1`, the “growth rescue (activation)” value is inactive: 26.2%.

As to `Cc1cc(C)c(C)c(S(=O)(=O)N2CCC(C(=O)Nc3ccccc3N3CCOCC3)CC2)c1C`, the “growth rescue (activation)” value was inactive: 8.87%.

For `CCn1cc(Br)c(C(=O)Nc2ccccc2C(=O)OC)n1`, the “growth rescue (activation)” value was inactive: 6.27%.

On to `O=C(CN1C(=O)c2cccc3cccc1c23)NC1CCCC1`, for which the “growth rescue (activation)” value was inactive: -20%.

With `O=C(CCN1C(=O)/C(=C/c2ccco2)SC1=S)Nc1ccc(C(=O)O)c(O)c1`, the “growth rescue (activation)” value is inactive: 4.71%.

In the case of `Cc1nc(N2CCN(S(=O)(=O)c3ccc(Br)cc3)CC2)c2c(C)c(C)sc2n1`, the “growth rescue (activation)” value is inactive: -6.27%.

Consider `CC1CCCN(S(=O)(=O)c2cccc(C(=O)NCC3CCCO3)c2)C1` (stereo not drawn), for which the “growth rescue (activation)” value was inactive: -3.11%.

For the compound `O=C(c1ccc(F)cc1)C1CCN(Cc2ccc(F)cc2)CC1`, the “growth rescue (activation)” value was inactive: 9.42%.

With `O=C(O)c1ccc(CN2CCOCC2)o1`, the “growth rescue (activation)” value was inactive: 6.92%.

Take `COc1ccccc1-c1cnc(C(O)c2cc(Cl)cc(Cl)c2)[nH]1` (stereo not drawn): the “growth rescue (activation)” value was inactive: 8.84%.

For the compound `CC(C)CNC(=O)Cn1nc(C(F)(F)F)c2c1CCCC2`, the “growth rescue (activation)” value was inactive: 13.7%.

As to `CN1CCN(CCCNCc2cn(CCC#N)c3ccccc23)CC1`, the “growth rescue (activation)” value is inactive: -1.4%.

On to `COc1ccc(Cc2nc3c4cnn(-c5ccccc5Br)c4ncn3n2)cc1`, for which the “growth rescue (activation)” value was inactive: 11.3%.

Take `CCc1ccc2c(c1)C(c1ccc([N+](=O)[O-])cc1)=NNC(c1ccccc1)=N2`: the “growth rescue (activation)” value is inactive: 2.21%.

Consider `COc1ccc(C(C(=O)NC(C)(C)C)N(Cc2ccco2)C(=O)CCC(=O)Nc2ccccn2)cc1` (stereo not drawn), for which the “growth rescue (activation)” value was inactive: -1.48%.

For the compound `COc1ccc(-c2ccnc3c(C(=O)O)cnn23)cc1`, the “growth rescue (activation)” value was inactive: 19.8%.

For the compound `Cc1c([N+](=O)[O-])c([N+](=O)[O-])nn1CC(=O)NCCc1ccccc1`, the “growth rescue (activation)” value was inactive: -0.068%.

As for `COc1cccc(S(=O)(=O)NCc2ccc(C(=O)Nc3ccc(Cl)cc3)cc2)c1`, the “growth rescue (activation)” value was inactive: -0.821%.

On to `O=c1[nH]c(C2CCN(S(=O)(=O)c3cccc([N+](=O)[O-])c3)CC2)nc2c1nnn2Cc1ccccc1`, for which the “growth rescue (activation)” value was inactive: 8.91%.

`CCOc1ccc(CNC(=O)c2cnc(SC)nc2CC)cc1`: the “growth rescue (activation)” value was inactive: 20.4%.

On to `O=C(Cn1nc(C(F)F)cc1C1CC1)N1CCCC1`, for which the “growth rescue (activation)” value is inactive: -14%.

`CN(CC(=O)NCCc1ccc(F)cc1)Cc1ccc(Br)cc1`: the “growth rescue (activation)” value was inactive: 9.49%.

With `CCCCC(=O)N(C)c1c(C)nc2ccc(C(=O)NCc3ccccc3OC)cn12`, the “growth rescue (activation)” value is inactive: 13.5%.

Regarding `Cc1cc(F)ccc1-c1cc(C(=O)NCc2ccccc2)[nH]n1`, the “growth rescue (activation)” value is inactive: 12.7%.

On to `CSc1ccc(CN2CCC(C)(Oc3cccc(F)c3)C2)cc1` (stereo not drawn), for which the “growth rescue (activation)” value was inactive: -4.99%.

Turning to `COc1ccc(C(NC(C)=O)c2cc(Cl)c3cccnc3c2O)cc1OC` (stereo not drawn), the “growth rescue (activation)” value is inactive: 11%.

On to `Cn1c(Cn2nnc3ccccc32)nnc1SCC(=O)Nc1nccs1`, for which the “growth rescue (activation)” value is inactive: 12%.

Consider `Cc1ccnn1Cc1cc(C(=O)O)c2ccccc2n1`, for which the “growth rescue (activation)” value was inactive: 9.79%.

With `Cc1ccccc1NS(=O)(=O)c1ccc(NC(=O)N2CCCCC2)cc1`, the “growth rescue (activation)” value is inactive: -4.4%.

Regarding `COc1cccc(C(=O)NCC(=O)OC(C)C(=O)NC23CC4CC(CC(C4)C2)C3)c1` (stereo not drawn), the “growth rescue (activation)” value was inactive: 6.73%.

Turning to `O=C(CSc1nnnn1Cc1ccccc1)NC1CCCCC1`, the “growth rescue (activation)” value was inactive: 2.16%.

As for `CCOC(=O)c1c(CC(C)C)csc1NC=O`, the Potency was active: 15.8 µM.

Regarding `CCOc1cc(C)c(S(=O)(=O)NC2CC(C)(C)NC(C)(C)C2)cc1C`, the “growth rescue (activation)” value was inactive: -8.43%.

As to `O=C(O)CC(C(=O)N(c1ccccc1)c1ccccc1)N1CCOCC1` (stereo not drawn), the “growth rescue (activation)” value was inactive: 17.7%.

Consider `O=C(O)Cn1c2c(c3ccccc31)CSc1ccc(Cl)cc1-2`, for which the “growth rescue (activation)” value was inactive: 8.81%.

In the case of `Cc1ccc(NC(=S)/N=C(\N)Nc2nc(C)c3cc(C)c(C)cc3n2)cc1C`, the “growth rescue (activation)” value is inactive: 9.42%.

Consider `Cc1sc2ncn(-n3c(C)ccc3C)c(=O)c2c1C`, for which the “growth rescue (activation)” value was inactive: 38%.

`Cc1ccc(-c2cc(C(=O)Nc3ccc(S(=O)(=O)Nc4onc(C)c4C)cc3)[nH]n2)c(O)c1`: the “growth rescue (activation)” value is inactive: -13.5%.

For the origin of these results see PubChem BioAssay AID1347073 (National Center for Advancing Translational Sciences (NCATS), 2019).
